Assay results published in PubChem BioAssay AID2675 (National Center for Advancing Translational Sciences (NCATS), 2010).
About 100 (0.036%) of roughly 280,000 compounds were called active. Inconclusive results, whose numbers are uncertain, are shown with a selection of clear calls. The call rests on the fitted dose curve; in most records, active means well fitted inhibition curve with a large enough effect in the signal ratio, with a control signal flat (not every such curve was filed as active); inconclusive means small, poorly fitted or top-dose-only effect, or effect the other way, or a change in a side signal; inactive means no such curve, though single readings can be large or run the other way; the % refers to the signal ratio. Potencies of inconclusive entries are doubtful fits and often do not repeat. A note “side channel” means that the fit belongs to a control or component signal, not to the main read-out.

molecular target: Muscleblind-like protein 1 (Homo sapiens) (UniProt Q9NR56); test: qHTS Assay for Inhibitors of MBNL1-poly(CUG) RNA binding; details: TR-FRET MBNL1-His/biotin-(CUG)12 binding, 665/545 ratio; activity change, negative = inhibition: at 57.5 µM (top of the series)
Summary of the method: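 His-tagged MBNL1 binding to biotinylated (CUG)12 RNA was measured by TR-FRET using terbium anti-His antibody (0.055 ng/ul final) and streptavidin-XL665 (5 nM final). Compounds were titrated 92 nM to 58 uM; 60 min at room temperature.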
On the % scale 0 is the no-effect control and ±100 the full control effect; potency means the concentration at half of the fitted maximal effect; tags describe the fitted curve by direction and shape or compound fluorescence and quenching.

UniProt Q9NR56, sequence (Q9NR56 whole entry, looked up): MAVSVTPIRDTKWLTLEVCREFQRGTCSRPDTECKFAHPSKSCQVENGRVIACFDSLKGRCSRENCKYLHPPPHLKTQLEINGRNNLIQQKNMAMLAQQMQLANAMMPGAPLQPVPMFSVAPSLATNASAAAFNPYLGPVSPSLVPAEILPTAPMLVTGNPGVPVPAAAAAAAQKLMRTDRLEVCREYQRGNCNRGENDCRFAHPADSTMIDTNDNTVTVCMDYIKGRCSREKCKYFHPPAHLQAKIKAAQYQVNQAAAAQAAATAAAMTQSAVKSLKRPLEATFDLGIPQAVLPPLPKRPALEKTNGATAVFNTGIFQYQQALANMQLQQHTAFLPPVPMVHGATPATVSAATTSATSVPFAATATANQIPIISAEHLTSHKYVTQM

Compound | Potency | activity change, negative = inhibition
Cc1ccc2nsnc2c1NC(=O)c1cccnc1Cl | inconclusive: 15.8 µM [quencher, side channel, partial curve] | 
O=C(c1ccc2c(c1)OCCO2)C1CCN(C(=O)c2ccc(F)c(F)c2)CC1 |  | inactive: -5.71%
CCOC(=O)C(=O)Nc1nccs1 |  | inactive: -6.85%
O=C(COc1ccc2c(-c3ccccc3)cc(=O)oc2c1)NCC1CCC(C(=O)O)CC1 (centres undefined) | inconclusive: 17.8 µM [quencher, side channel, partial curve] | 
O=S(=O)(Nc1ccc(Cc2ccncc2)cc1)c1ccc(Cl)cc1 |  | inactive: -11%
Cn1c(=O)c2[nH]c(N3CCN(c4ccccn4)CC3)nc2n(C)c1=O | inconclusive: 7.08 µM [fluorescent, side channel, single point] | 
CN(Cc1ncc[nH]1)C(=O)CC1C(=O)NCCN1Cc1c(F)cccc1Cl (centres undefined) | inconclusive: 8.91 µM [quencher, side channel, partial curve] | 
Cc1ccccc1Nc1nc(-c2sc(NC(=O)c3ccc([N+](=O)[O-])cc3)nc2C)cs1 | inconclusive: 25.1 µM [quencher, side channel, single point] | 
O=C(Cc1ccc([N+](=O)[O-])cc1)Nc1ccon1 | inconclusive: 17.8 µM [quencher, side channel, partial curve] | 
CC(C)(C)Cc1nnc(NS(=O)(=O)c2ccc([N+](=O)[O-])cc2)s1 | inconclusive: 20 µM [quencher, side channel, partial curve] | 
COc1ccc(N/N=C(\C#N)C(=N)SCc2ccccc2)cc1 | inconclusive: 28.2 µM [quencher, side channel, single point] | 
Cc1ccc(S(=O)(=O)C2(C(=O)NCc3ccc4c(c3)OCO4)CC2)cc1 | inconclusive: 39.8 µM [quencher, side channel, single point] | 
COc1cc(/C=N/NC(=O)c2ccc([N+](=O)[O-])cc2Cl)cc(Br)c1O | inconclusive: 3.98 µM [quencher, side channel, full curve] | 
O=C(NCc1ccccc1)c1csc(-c2cccnc2)n1 |  | inactive: -11.7%
CCOC(CNC(=O)c1cccc([N+](=O)[O-])c1)OCC | inconclusive: 22.4 µM [quencher, partial curve] | 
c1ccc(-c2nc3nonc3nc2-c2ccccc2)cc1 | inconclusive: 12.6 µM [quencher, side channel, partial curve] | 
O=C(c1ccncc1)N(c1ccc2oc3c(c2c1)CCCC3)S(=O)(=O)c1ccc(F)cc1 |  | inactive: -2.13%
CCOC(=O)CCCNC(=O)COC(=O)/C=C/c1ccc2c(c1)OCO2 | inconclusive: 28.2 µM [quencher, side channel, partial curve] | 
O=[N+]([O-])/C=C\c1ccc(N2CCCC2)c(F)c1 |  | inactive: 8.14%
C/C(=N/Nc1ccc([N+](=O)[O-])cc1)c1c[nH]c2ccccc12 | inconclusive: 31.6 µM [quencher, side channel, single point] | 

Compound | Potency | activity change, negative = inhibition
Cc1ccc2c(c1)c(C1=NC(=S)NC1=O)c(O)n2C | inconclusive: 2 µM [quencher, side channel, partial curve] | 
COc1ccc(-c2nc3ccc(C(=O)NCCCN4CCOCC4)cc3nc2-c2ccc(OC)cc2)cc1 | inconclusive: 15.8 µM [quencher, side channel, partial curve] | 
Cc1ccc(OC(=O)c2ccc(C)c([N+](=O)[O-])c2)cn1 | inconclusive: 14.1 µM [quencher, side channel, partial curve] | 
O=C(N/N=C/c1ccc([N+](=O)[O-])o1)c1ccc(O)cc1 | inconclusive: 12.6 µM [quencher, side channel, partial curve] | 
Cn1nc(-c2ccc(Cl)cc2)nc2c(=O)n(C)c(=O)nc1-2 | inconclusive: 4.47 µM [quencher, side channel, partial curve] | 
O=C(NC(=S)Nc1cc([N+](=O)[O-])ccc1O)c1ccc2c(c1)OCO2 | inconclusive: 35.5 µM [quencher, side channel, single point] | 
CC(=O)Nc1ccc(N=Cc2nc(-c3ccc(C)cc3)oc2O)cc1 | inconclusive: 2.82 µM [quencher, full curve, poor fit] | 
COCCNC(=O)c1c[nH]c2ccc(S(=O)(=O)N3CCOCC3)cc2c1=O |  | inactive: 0.869%
COc1cc(C(=O)OCC(C)=O)c([N+](=O)[O-])cc1OC | inconclusive: 17.8 µM [quencher, side channel, single point] | 
O=C(C1=C(O)C(=O)N(CCN2CCOCC2)C1c1ccccn1)c1cccs1 (centres undefined) | inconclusive: 11.2 µM [quencher, side channel, partial curve] | 
CCOC(=O)c1ccn(-c2nc(-c3ccco3)cc(C(F)(F)F)n2)n1 | inconclusive: 25.1 µM [quencher, side channel, partial curve, poor fit] | 
Cc1nn(-c2ccc([N+](=O)[O-])cc2)c(N)c1-c1ccccc1 | inconclusive: 11.2 µM [quencher, side channel, partial curve] | 
Cc1c(NC2=NC(C)(C)Cc3ccccc32)c(=O)n(-c2ccccc2)n1C |  | inactive: -11.2%
O=C(N/N=C/c1cc(Cl)ccc1O)c1ccc(Br)cc1 | inconclusive: 0.199 µM [quencher, side channel, full curve, poor fit] | 
CCCOc1ccc(/C(O)=C2/C(=O)C(=O)N(CCCn3ccnc3)C2c2ccco2)cc1 (centres undefined) | inconclusive: 31.6 µM [quencher, side channel, single point] | 
COc1ccc2c(c1)C(=NNc1ccc(C(=O)O)cc1)c1cc(OC)ccc1-2 |  | inactive: 20.1%
COc1ccc2c(c1)c(=O)oc1cc(OCC(=O)N3CCC(C)CC3)ccc12 | inconclusive: 35.5 µM [fluorescent, side channel, single point] | 
C=CCn1c(SCC(=O)N2N=C(c3ccco3)CC2c2ccco2)nnc1-c1ccncc1 (centres undefined) |  | inactive: 4.52%
CC(C)(C)c1ccc(S(=O)(=O)N2CCCCC2C(=O)NCc2ccccn2)cc1 (centres undefined) | inconclusive: 8.91 µM [quencher, side channel, single point] | 
